Assay results as given in PubChem BioAssay AID588342 (National Center for Advancing Translational Sciences (NCATS), 2011).
The whole screen tested about 360,000 compounds, of which about 25,000 (6.9%) were called active. The shares of active, inactive and inconclusive entries below differ from those in the screen. Calls come from the whole dose curve; as a rule, active = well fitted inhibition curve with a large enough effect; inconclusive = small, poorly fitted or top-dose-only effect; inactive = flat fitted curve, though single readings scatter. Potencies of inconclusive entries are doubtful fits and often do not repeat.

Biological target: Luciferin 4-monooxygenase (Photinus pyralis) (UniProt P08659)
Experiment: qHTS profiling assay for firefly luciferase inhibitor/activator using purifed enzyme and Km concentrations of substrates (counterscreen for miR-21 project); note: nearly all actives have a fitted effect of over 55% in size;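 for activity change, negative = inhibition: plate controls were vehicle for no effect and reference inhibitor for full effect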
Settings: purified FLuc, luminescence inhibition; activity change, negative = inhibition: at 57.5 µM (top of the series)
How it was run: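 Purified P. pyralis luciferase (10nM final) with 10uM D-luciferin and 10uM ATP (Km levels) in 50mM Tris acetate pH 7.5, 10mM Mg acetate, 0.01% Tween-20, 0.05% BSA; qHTS 6-point titration, ~60 µM downward; luminescence read.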
Potency is the fitted concentration of half-maximal effect; tags give direction and shape of the fitted curve.

Chain of UniProt P08659 (P08659 whole entry, looked up): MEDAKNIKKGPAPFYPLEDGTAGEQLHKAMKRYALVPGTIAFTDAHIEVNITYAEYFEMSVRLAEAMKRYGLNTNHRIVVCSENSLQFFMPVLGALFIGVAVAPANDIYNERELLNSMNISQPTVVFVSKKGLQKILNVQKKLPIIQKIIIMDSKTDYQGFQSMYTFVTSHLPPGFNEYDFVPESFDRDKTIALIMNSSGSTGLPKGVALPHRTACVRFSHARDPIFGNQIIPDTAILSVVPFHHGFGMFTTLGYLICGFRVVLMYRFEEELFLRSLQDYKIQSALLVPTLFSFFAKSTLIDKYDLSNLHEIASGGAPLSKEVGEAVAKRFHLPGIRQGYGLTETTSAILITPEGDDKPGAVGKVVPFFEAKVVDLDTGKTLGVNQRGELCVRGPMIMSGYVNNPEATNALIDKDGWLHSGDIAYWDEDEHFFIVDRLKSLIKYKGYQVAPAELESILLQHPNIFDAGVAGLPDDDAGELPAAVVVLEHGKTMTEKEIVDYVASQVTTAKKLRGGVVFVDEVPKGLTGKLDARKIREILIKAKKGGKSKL

SMILES	Potency	activity change, negative = inhibition
CN(C(=O)c1cc(-c2ccccc2O)on1)c1ccccc1	inconclusive: 15.1 µM [inhibitor, partial curve]	
CCC1=NN(C(=O)c2ccccc2O)C(O)(c2ccccc2)C1 (stereo not given)	inconclusive: 37.9 µM [inhibitor, single point]	
COC(=O)c1ccc(-c2cc(C(=O)O)c3cc4c(cc3n2)OCCO4)cc1	active: 4.78 µM	
COc1ccc2c(=O)c(-c3cnn(-c4ccccc4)c3)c(C)oc2c1	inconclusive: 37.9 µM [inhibitor, partial curve, poor fit]	
N#C/C(C(=O)Oc1ccccc1)=C1\C=CC=CN1	active: 19 µM	
COc1cccc(C(=O)NC(=S)Nc2ccc3c4c(cccc24)CC3)c1	inconclusive: 23.9 µM [inhibitor, partial curve, poor fit]	
CCOC(=O)Cc1c(C)nc(SC)[nH]c1=O		inactive: -2.24%
COc1cccc(-c2onc3ccc(C(=O)/C=C/N(C)C)cc23)c1	inconclusive: 23.9 µM [inhibitor, single point]	
CSc1ccc(CCNc2ncnc3onc(C)c23)cc1	inconclusive: 23.9 µM [inhibitor, partial curve]	
COc1cc(NC(=O)c2ccc(Cl)cc2)c(OC)cc1NC(=O)CN1CCOCC1	inconclusive: 26.9 µM [inhibitor, partial curve, poor fit]	
O=C1C(Cl)=C(N2CCCCCC2)C(=O)N1c1ccc(Cl)cc1	inconclusive: 33.8 µM [inhibitor, partial curve, poor fit]	
O=C(Nc1nnc(-c2cccs2)o1)c1ccco1	inconclusive: 23.9 µM [inhibitor, partial curve, poor fit]	
O=C1N=C(N2CCOCC2)S/C1=C/c1cccs1	inconclusive: 19 µM [inhibitor, partial curve]	
O=C(CN1C(=O)c2ccccc2C1=O)NC1CCC(O)CC1 (stereo not given)		inactive: 4.43%
COc1ccc2c(c1)-c1nc(NC(=O)c3ccco3)sc1CC2	active: 19 µM	
O=C(NCCSc1c[nH]c2ccccc12)c1ccc2c(c1)OCO2	inconclusive: 21.3 µM [inhibitor, partial curve, poor fit]	
CCCCCC(=O)c1ccc(O)cc1O	inconclusive: 26.9 µM [inhibitor, single point]	
Nc1cc(C(F)(F)F)ccc1NCCc1ccccn1		inactive: -6.06%
COc1cccc(/C=C/C(=O)Nc2cccc(C(C)=O)c2)c1OC	active: 3.01 µM	
Cc1ccc(SCC(=O)NCCC2=CCCCC2)cc1	inconclusive: 26.9 µM [inhibitor, single point]	
CCOC(=O)N1CCN(C(=O)C2CCN(C(=O)c3ccc(C(C)(C)C)cc3)CC2)CC1		inactive: 3.3%
Cc1cccc(Nc2nnc(-n3nc(C)cc3C)c3ccccc23)c1	inconclusive: 19 µM [inhibitor, partial curve]	
COc1cccc(C(=O)NC2CCCc3c2cnn3-c2ccc(C)c(C)c2)c1OC (stereo not given)		inactive: 0.723%

SMILES	Potency	activity change, negative = inhibition
O=C(CSc1ccccn1)Nc1ccc(Cl)c([N+](=O)[O-])c1	inconclusive: 19 µM [inhibitor, partial curve, poor fit]	
O=C(c1ccco1)N1CCN(c2nc3ccccc3n3nnnc23)CC1	inconclusive: 37.9 µM [inhibitor, partial curve, poor fit]	
CCC(C)NC(=O)CCC(=O)Nc1ccc2nc(N3CCOCC3)cc(C)c2c1 (stereo not given)	inconclusive: 21.3 µM [inhibitor, single point]	
CCCCc1ccc(NC(=S)N2CCN(C)CC2)cc1	active: 15.1 µM	
CCOC(=O)c1noc2ncnc(N(CCC(=O)OC)c3ccccc3)c12		inactive: -14.1%
Cc1ccc(-c2cc(N)n3nc(-c4ccc(C)cc4)cc3n2)cc1	inactive	
COC(=O)C1C(=O)C(C(=O)/C=C/c2ccccc2)C(=O)CC1(C)C (stereo not given)	inconclusive: 37.9 µM [inhibitor, partial curve, poor fit]	
COc1ccc(OC)c(C2CC(=O)c3c([nH]c(C(=O)OC4CCC(C)CC4)c3C)C2)c1 (stereo not given)		inactive: -0.505%
Clc1ccc(-c2nnc(-c3ccccc3)o2)cn1	inconclusive: 30.1 µM [inhibitor, single point]	
C/C(=N\NC(=O)c1cc2ccccc2cc1O)c1cc2ccccc2o1	active: 15.1 µM	
CCOc1ccc(/C=N/NC(=O)CSc2n[nH]c(=O)[nH]c2=O)cc1OC	inconclusive: 37.9 µM [inhibitor, partial curve, poor fit]	
COc1ccccc1/C=N/Nc1nccnc1Cl	active: 12 µM	
CC1Cc2ccccc2N1CC(=O)NC(=O)NC1CCCCC1 (stereo not given)		inactive: 3.44%
COc1ccc(/C=C2\N=C(SC)NC2=O)cc1	inconclusive: 26.9 µM [inhibitor, single point]	
O=C(Nc1nc(-c2ccccn2)cs1)Nc1ccc(F)cc1F	inconclusive: 19 µM [inhibitor, partial curve]	
O=C(NCC1CCCO1)c1onc(CSc2ccc(Cl)cc2)c1C(=O)O (stereo not given)	inconclusive: 21.3 µM [inhibitor, single point]	
Cc1cccc(C)c1-n1ncc(C(=O)Nc2ccc3c(c2)OCCO3)c1C1CCN(C(=O)OC(C)(C)C)CC1	inconclusive: 19 µM [inhibitor, partial curve]	
CCCCn1c(/C=N/Nc2nc3ccccc3[nH]2)nc2ccccc21	inconclusive: 3.38 µM [inhibitor, partial curve, poor fit]	
O=C(Nc1ccccn1)c1sc2cc([N+](=O)[O-])ccc2c1Cl	inconclusive: 3.79 µM [inhibitor, full curve, poor fit]	
COc1ccccc1C(=O)Nc1cc2c(cc1N1CCCCC1)n(C)c(=O)n2C		inactive: -12.6%
COc1ccc(N2CCN(c3cc(C)nc4nc(-c5ccc(C)cc5)nn34)CC2)cc1	inconclusive: 5.36 µM [inhibitor, partial curve, poor fit]	
COc1ccccc1-c1noc(-c2ccc(N3CCN(c4ccccc4)CC3)c([N+](=O)[O-])c2)n1	inconclusive: 16.9 µM [inhibitor, partial curve]	
